Measurements as given in a compilation of properties of binary mixtures (doi:10.1016/j.jcis.2010.04.060).
The densities may have been worked out from excess volumes.

Assay: xn = mol fraction of the nth substance listed
Conditions: 101 kPa

CCCC[n+]1ccn(C)c1.N#C[S-] + CCCCCCO
mass density [kg/m3]
Conditions | x2 = 0.059 | x2 = 0.1569 | x2 = 0.2766 | x2 = 0.3568 | x2 = 0.5983 | x2 = 0.7512 | x2 = 0.904
298.15 K | 1060.1 | 1042.8 | 1019.8 | 1003.1 | 945.2 | 901.3 | 850.9
308.15 K | 1054.2 | 1036.8 | 1013.7 | 996.9 | 938.7 | 894.7 | –
318.15 K | – | 1030.8 | 1007.6 | 990.8 | 932.4 | 888 | 836.9
328.15 K | 1042.5 | 1025 | 1001.7 | 984.8 | 926.1 | 881.4 | 829.9
338.15 K | 1036.6 | 1019 | 995.7 | – | 919.7 | 874.7 | 822.6

CCCC[n+]1ccn(C)c1.N#C[S-] + CCCCCO
mass density [kg/m3]
Conditions | x2 = 0.0373 | x2 = 0.1246 | x2 = 0.2218 | x2 = 0.3458 | x2 = 0.4581 | x2 = 0.5783 | x2 = 0.6977 | x2 = 0.832
298.15 K | 1064.5 | 1051.1 | 1035 | 1012.2 | 988.6 | 959.3 | 925.3 | –
308.15 K | 1058.7 | 1045.2 | – | 1006.1 | – | 953 | – | –
318.15 K | – | 1039.1 | 1023 | 1000 | 976.1 | 946.5 | 912.1 | 866.3
328.15 K | 1047 | 1033.3 | 1017.1 | 994 | 970 | 940.2 | 905.6 | –
338.15 K | – | 1027.4 | – | 988 | – | – | – | 852.4

CCCC[n+]1ccn(C)c1.N#C[S-] + CCCCO
mass density [kg/m3]
Conditions | x2 = 0 | x2 = 0.0878 | x2 = 0.1903 | x2 = 0.329 | x2 = 0.5279 | x2 = 0.6716 | x2 = 0.8107 | x2 = 0.8827
298.15 K | – | 1058.4 | 1043.9 | 1022.1 | – | 943.2 | 894.6 | 864.5
308.15 K | 1063.9 | 1052.4 | – | 1016 | 975.7 | 936.6 | 887.6 | 857.3
318.15 K | – | 1046.5 | 1031.9 | 1010 | 969.4 | – | – | 850
328.15 K | 1052.2 | 1040.7 | 1026 | 1003.9 | 963.1 | 923.4 | 873.6 | 842.6
338.15 K | – | – | 1020 | 997.8 | 956.9 | 916.8 | – | 835.2

CCCCCCO + CCCC[n+]1ccn(C)c1.N#C[S-]
x1 = 1
Conditions | mass density [kg/m3]
308.15 K | 807.7
318.15 K | 800.4
328.15 K | 792.9
338.15 K | 785.2

CCCCCO + CCCC[n+]1ccn(C)c1.N#C[S-]
x1 = 1
Conditions | mass density [kg/m3]
298.15 K | 810.9
308.15 K | 803.5
318.15 K | 796
328.15 K | 788.3
338.15 K | 780.4

CCCCO + CCCC[n+]1ccn(C)c1.N#C[S-]
x1 = 1
Conditions | mass density [kg/m3]
298.15 K | 805.8
308.15 K | 798.1
318.15 K | 790.2
328.15 K | 782.2
338.15 K | 773.9
